Measurements: the RNAGym collection of RNA variant scans (doi:10.7554/elife.90254)
The source gives no read counts; variants with many changes may rest on few reads.

B1: LINE1-full (parent)
chain: UACGUAGGUGGUUUUCCCCUGAUAGUGCUAAGGGGGCCUGGAAGUUUGGACUGGGCAGAGCUCAACACAGCGUGGCAAAGUGGCUGUGGCUAGACUGCCUCUCUGGAUUCCUCGUCACUCAGCAGGGCAUCUCUGAGAGAAAUGCC

Variants of: B1
Experiment: self-cleavage, relative activity (ratio to wild type); higher = more cleavage; in vitro, sequencing; the parent is a self-cleaving ribozyme

Variant | self-cleavage
U12C A77G U143C | 1.19
U12C A77U A117G G127U A136G | 1.47
U12C A77U U87A | 0.12
U12C A77U U104A U143C | 1.01
U12C A79G A140G | 1.45
U12C A79G A141G | 0.93
U12C A79G U85A A136G A141G | 0.24
U12C A79G U87C | 0.69
U12C A79G U96A | 0.18
U12C A79G U100C | 1.7
U12C A79U U81G U100C | 1.15
U12C A92U C116U A124G | 0.41
U12C A94G A136U | 0.42
U12C A107G A142G | 1.84
U12C A117G A121U A140G A141G | 2.34
U12C A121C A141G | 2.52
U12C A121U U143C | 1.71
U12C A129G A136U | 2.69
U12C A129G A140G | 0.84
U12C C17A C37G C61U A79G | 0.15
U12C C18A A69G A79U G105U | 0.76
U12C C19U A79G U119A | 0.4
U12C C19U G54A A69G G88A | 0.05
U12C C56A U85C | 0

Variant | self-cleavage
U12C C61U A141G | 0.02
U12C C63A A78G U91C C95U U130G | 0.05
U12C C63A A79G U102C U112A | 0.14
U12C C68U A124U | 0.16
U12C C71U C90G | 0.06
U12C G21A A22G A78G A138G | 1.27
U12C G21A U81A A129U A142G | 1.53
U12C G21U A117G U132C | 1.6
U12C G25U U39A C84U | 0.25
U12C G32A A50G U96C A121U | 0
U12C G32A U47A G82A U100C A142G | 1.21
U12C G32U G72A A141G | 1.19
U12C G32U U47C U96C | 0.18
U12C G33A A67U U73C A124G | 0
U12C G34A A65G | 0.25
U12C G34A A69U U100C | 0.1
U12C G34U A136G | 1.95
U12C G34U U104C U134A U143C | 1.91
U12C G36A U39A A65G A67C G70A | 0.06
U12C G36U A117G | 2.6
U12C G40A U112A | 0.97
U12C G41A U52A U62A U108G | 0.02
U12C G44A A65G | 0.17
U12C G44A U52A G72A A138G | 1.82

Variant | self-cleavage
U12C G49U A50U U62A A141U | 0.06
U12C G53A U85C U100A A107G | 0
U12C G53U G89A | 0.05
U12C G54A G82A | 1.11
U12C G54U A64G U96C | 0.3
U12C G58A A129U | 0.12
U12C G58U U73C | 0.11
U12C G60A A69U U85A A138G | 0.03
U12C G60A A124U A142G | 0.14
U12C G72A G80A A140G | 2.08
U12C G83A U109A U115C A141G | 0.31
U12C G88A U109C | 0.05
U12C G88A U132C | 0.03
U12C G89A U102A | 0.08
U12C U13A U73A A77U U85C C123U | 0.11
U12C U13C A59G C63U | 0.12
U12C U13C A59U U62A A78G A79U A129U U143C | 0.39
U12C U13C A65G C98U | 0.51
U12C U13C A69G A124U | 0.48
U12C U13C A77U U109G A138G | 0.4
U12C U13C A138G | 1.15
U12C U13C U20C | 0.84
U12C U13C U45C U62C | 0
U12C U13C U115C | 0.79

Variant | self-cleavage
U12C U14A A59G U104A | 0.04
U12C U14A U46C G83A U96C A129G A140U | 0.49
U12C U14C A30U U134A A141G | 0.95
U12C U14C A50U U73A | 0.25
U12C U14C A59G A92U A129G U132A | 0.46
U12C U14C A77G U96A U130C | 0
U12C U14C A129G | 0.81
U12C U14C G27A U62C A69G | 0.2
U12C U14C G34A U96A A140G G144A | 0.12
U12C U14C U15C A136G | 1.02
U12C U14C U26C | 0.93
U12C U14C U26C C63U U102A A140G | 0.47
U12C U14C U45C C90U A129G | 0.17
U12C U14C U91A G114A A129G U132C A141G | 0.74
U12C U15A A30G A78G A117G A138U | 2.3
U12C U15C A43G | 1.04
U12C U15C A57G | 1.3
U12C U15C A57G G74A A107G G114A | 1.1
U12C U15C A124G | 0.84
U12C U15C G34A | 0.84
U12C U15C U20A U132C | 1.7
U12C U15C U26A C110U | 1.27
U12C U15C U46C A67C | 0
U12C U20A A79G U115C A129U A140U | 1.75

Variant | self-cleavage
U12C U20C A24G A42U U46G U132C | 0.92
U12C U20C G33A U91A | 1.09
U12C U20C G53A | 1.07
U12C U20C G74U | 1.84
U12C U20C U23C A43G A78G C120U | 2.3
U12C U20C U23C A57G C71A | 0.18
U12C U20C U47A A64G G83A U85A | 0.27
U12C U23A A57G A67G A129G | 0
U12C U23A U132C | 1.84
U12C U23C A69G | 0.57
U12C U23C U62C A64C U143C | 0.18
U12C U23C U100C A142G | 1.58
U12C U26A C71U U102G U104C G125A | 1.02
U12C U26C A59G A136G | 0.66
U12C U26C G33U U62A | 0
U12C U26C G35C A59U G60A U115A G139U | 0.09
U12C U26C G74C | 1.37
U12C U26C U85A | 0.43
U12C U26G G70A U132C | 0.16
U12C U29A A43G A92G A94U A138G | 0
U12C U29A U52A U100C | 0.56
U12C U29C A59G | 0.66
U12C U29C A77U U109C | 2.12
U12C U39A A43U A78G U119C | 1.07

Variant | self-cleavage
U12C U39A U45G A124U | 1.64
U12C U39C A136U A142G | 0.4
U12C U39C U81A | 1.21
U12C U45A C113U | 1.38
U12C U45C A67G C101U | 1.21
U12C U45C A141G | 1.11
U12C U45C U62C A94U U115C C123U | 0
U12C U45C U100C U112C | 2.83
U12C U46A C56U U62C U130C | 0.05
U12C U46A U62C G135A | 0.18
U12C U46A U81A | 2.4
U12C U46A U134C | 1.65
U12C U46C A57G A64C | 0.57
U12C U46C C56U A94G A141G | 0.04
U12C U46C C71U U108C | 1.1
U12C U46C U73A U87A | 0.08
U12C U46C U85C | 0.15
U12C U47A A57G A92G U109C | 0
U12C U47A A57U | 0.32
U12C U47A A136G A142G | 0.43
U12C U47A G75A A94U | 0.14
U12C U47C A67G | 0.95
U12C U47C A138G | 0.59
U12C U47C U85C U104C | 1.31

Variant | self-cleavage
U12C U47C U102C | 0.71
U12C U47C U102C A142G | 1.47
U12C U47C U108C | 2.04
U12C U47G A79G G97A A121G | 0.17
U12C U47G U62C | 0.28
U12C U52A G58C | 0.02
U12C U52C U62C U132C | 0
U12C U52C U119C | 2
U12C U62C A69G A121U U134C | 0
U12C U62C A124G | 0.21
U12C U73C A124C | 0.54
U12C U73C A129U | 0
U12C U73C A138G | 1.36
U12C U73C C99U U130A | 1.15
U12C U81A U91A A136U | 1.3
U12C U81C U104A | 1.48
U12C U81C U104C | 1.41
U12C U81C U115C G126U | 2.96
U12C U85C U143C | 0.26
U12C U87C A92U U96C A141G | 0.92
U12C U87C A107G G126A A129G | 0.18
U12C U87C A124G | 0.21
U12C U87C U108C | 0.5
